Assay in all cases: two-hybrid; LexA-septin bait (modified pBTM116) in yeast L40 screened against human fetal brain and human leukocyte cDNA libraries (pACT2); minimal medium without Trp, Leu, His, with 5 mM 3-AT; every clone confirmed one-to-one with its bait by beta-galactosidase filter assay, empty bait vector as control
In one experiment the target is T1, human septin 10 (human) (UniProt Q9P0V9).
T1 sequence: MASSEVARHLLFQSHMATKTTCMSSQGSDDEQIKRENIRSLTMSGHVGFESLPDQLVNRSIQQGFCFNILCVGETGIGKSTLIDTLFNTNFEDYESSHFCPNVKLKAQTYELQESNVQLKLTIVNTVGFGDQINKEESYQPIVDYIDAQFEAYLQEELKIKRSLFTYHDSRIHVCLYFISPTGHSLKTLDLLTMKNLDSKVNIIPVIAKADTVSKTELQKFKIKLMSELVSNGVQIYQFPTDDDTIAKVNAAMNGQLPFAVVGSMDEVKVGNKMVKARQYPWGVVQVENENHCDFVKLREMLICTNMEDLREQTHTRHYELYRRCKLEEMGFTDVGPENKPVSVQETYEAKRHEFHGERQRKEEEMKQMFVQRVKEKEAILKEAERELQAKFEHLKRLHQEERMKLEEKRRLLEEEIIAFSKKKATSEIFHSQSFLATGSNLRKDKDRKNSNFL

The next experiment addresses T2, human septin 8 (human) (UniProt Q92599).
T2 sequence: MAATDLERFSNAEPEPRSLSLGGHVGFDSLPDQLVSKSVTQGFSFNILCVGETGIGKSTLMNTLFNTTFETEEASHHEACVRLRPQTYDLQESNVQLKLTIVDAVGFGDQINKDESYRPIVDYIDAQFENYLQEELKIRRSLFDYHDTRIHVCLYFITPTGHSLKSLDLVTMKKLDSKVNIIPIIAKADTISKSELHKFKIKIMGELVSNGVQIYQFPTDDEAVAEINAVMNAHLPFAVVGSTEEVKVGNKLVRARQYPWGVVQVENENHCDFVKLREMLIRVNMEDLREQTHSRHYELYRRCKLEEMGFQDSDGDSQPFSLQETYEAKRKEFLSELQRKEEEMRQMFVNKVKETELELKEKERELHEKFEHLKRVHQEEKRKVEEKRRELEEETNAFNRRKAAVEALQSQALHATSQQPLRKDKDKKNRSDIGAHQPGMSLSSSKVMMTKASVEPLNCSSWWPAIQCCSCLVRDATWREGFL

Another experiment addresses T3, human septin 1 (human) (UniProt Q8WYJ6).
T3 sequence: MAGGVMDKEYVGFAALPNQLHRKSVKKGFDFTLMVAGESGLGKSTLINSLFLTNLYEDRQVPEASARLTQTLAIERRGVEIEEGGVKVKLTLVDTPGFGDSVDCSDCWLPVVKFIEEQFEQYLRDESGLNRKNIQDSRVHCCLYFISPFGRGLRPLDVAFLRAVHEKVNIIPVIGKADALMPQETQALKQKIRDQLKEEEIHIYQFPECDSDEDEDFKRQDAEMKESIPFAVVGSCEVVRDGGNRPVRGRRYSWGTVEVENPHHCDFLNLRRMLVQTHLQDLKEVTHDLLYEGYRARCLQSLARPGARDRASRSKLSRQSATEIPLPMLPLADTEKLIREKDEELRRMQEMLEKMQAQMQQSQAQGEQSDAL

The target in the next experiment is T4, human septin 5 (human) (UniProt Q99719).
T4 sequence: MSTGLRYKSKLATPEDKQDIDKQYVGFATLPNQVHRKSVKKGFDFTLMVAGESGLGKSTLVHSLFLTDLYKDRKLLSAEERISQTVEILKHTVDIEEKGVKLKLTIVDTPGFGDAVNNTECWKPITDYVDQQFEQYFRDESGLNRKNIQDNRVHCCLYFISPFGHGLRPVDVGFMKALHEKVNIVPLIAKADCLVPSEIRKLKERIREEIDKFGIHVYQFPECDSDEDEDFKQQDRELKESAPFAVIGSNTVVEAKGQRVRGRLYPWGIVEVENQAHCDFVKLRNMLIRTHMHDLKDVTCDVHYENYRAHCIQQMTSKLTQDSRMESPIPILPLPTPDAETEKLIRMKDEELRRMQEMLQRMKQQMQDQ

Results are given in words; binding and its absence hold for the method and conditions named. Some results given as binding are weak or reduced against the parent protein; the word gives no strength.

The values that follow come from PMC2970546.

B1: human septin 10 (protein, UniProt Q9P0V9 1-454)
chain: T1 sequence
As to B1, the binding result in the experiment with human septin 10 (human) and with human septin 8 (human) was “no binding” each time.

B2: human septin 5 (protein, UniProt Q99719-1 1-369)
chain: T4 sequence
In the case of B2, the binding result is reported as “no binding” with human septin 10 (human), “binds” in the experiment with human septin 8 (human), “binds” with human septin 1 (human) and “binds” in the experiment with human septin 5 (human).

B3: human septin 8 (protein, UniProt Q92599-1 1-483)
chain: T2 sequence
For the molecule B3, the binding entry is “no binding” with human septin 10 (human), “no binding” with human septin 8 (human) and “binds” with human septin 5 (human).
